In PubChem BioAssay AID743279 (National Center for Advancing Translational Sciences (NCATS), 2014):
Out of some 360,000 compounds screened, about 17,000 (4.7%) were called active. Inconclusive results, whose numbers are uncertain, are shown with a selection of clear calls. Cut-off read from the data, not from the text of the source: active = activity change below about -50%; inconclusive = mostly about -30% to -49%; inactive = weaker than that.

Assay: qHTS for Inhibitors of Inflammasome Signaling: IL-1-beta AlphaLISA Primary Screen
Details: THP-1 LPS/ATP IL-1B secretion, 16 h; at 57.5 µM, stronger effect = lower value
Method in brief: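 Secreted IL-1B measured by AlphaLISA bead assay after 16 h compound exposure of THP-1 cells; compounds (final up to 57.5 uM) added 1 h before LPS (250 ng/mL) and ATP (1.25 mM) stimulation; lower signal means less secretion.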
% is set by controls: 0 for no effect and ±100 for the full control effect.

SMILES	activity change
CC(=O)c1cccc(NC(=O)Nc2cnn(Cc3ccc(Cl)cc3Cl)c2)c1	inconclusive: -44%
Cc1ccc(-c2csc(-c3cc(C)on3)n2)cc1	inconclusive: -31.4%
CCCS(=O)(=O)NC(=O)C1(C)CCCN(C(=O)c2cc(OC)c(OC)c(OC)c2)C1 (stereo not given)	inactive: 0%
CCOC(=O)C1CCCN(C(=O)c2ccncc2)CC1 (stereo not given)	inconclusive: -47.8%
CCC(=O)N/C(N)=N/c1nc(C)c2cc(OC)ccc2n1	active: -66%
Cc1cc(NC(=O)CSc2nc(-c3ccccc3)nc3c2c(=O)n(C)c(=O)n3C)no1	inactive: -14.8%
COc1ccc(C(CNC(=O)c2cc(SC)ccc2Cl)N(C)C)cc1 (stereo not given)	inconclusive: -33.3%
CCCCOc1ccc(C(=O)Nc2ccncc2)cc1	inconclusive: -45%
CC(C)c1ccc(NC(=O)Nc2nc(C(N)COCc3ccccc3)cs2)cc1 (stereo not given)	inconclusive: -46.2%
CCN1CCc2c(sc(NC(=O)c3cc4ccccc4cc3OC)c2C(N)=O)C1	active: -99.6%
Cc1cc(CNC(=O)Cc2ccc(F)cc2)c2ccccc2n1	inactive: 24.6%
CC(C)(C)c1csc(NC(=O)c2ccc(Br)o2)n1	inconclusive: -34.5%
CCCCCCNC(=O)CNC(=S)N(Cc1cccs1)C1CCCCC1	inconclusive: -38.8%
COc1cccc(N2CCN(c3c(C#N)c(C(F)(F)F)nn3C)CC2)c1	active: -50.6%
COc1ccc(CN2CCN(S(=O)(=O)c3ccc(NC(C)=O)cc3)CC2)cc1OC	inconclusive: -40.4%
CS(=O)(=O)N1CCC(C(=O)Nc2cc(Cl)cc(Cl)c2)CC1	inconclusive: -39.7%
NC1=NC[C@@H](Cc2ccc(O)cc2)N1CCc1cc(C(F)(F)F)cc(C(F)(F)F)c1	inconclusive: -47.7%
CCCCCCCCCCCC1N=C(N)NC(CCCO)=C1C(=O)OC (stereo not given)	inconclusive: -36.7%
CC(=O)C12OC(C)(C)OC1CC1C3CCC4=CC(=O)C=CC4(C)C3(F)C(O)CC12C (stereo not given)	active: -56.9%
CCCCCN(C(=O)CCC(=O)OCC(=O)c1c(C)cc(C)cc1C)c1c(N)n(CCCC)c(=O)[nH]c1=O	active: -76.7%
Cc1ccc(S(=O)(=O)N(C(=O)c2ccncc2)c2ccc(OC(=O)c3ccncc3)c3ccccc23)cc1	active: -78.8%
COc1ccc(CNC(=O)c2nn(-c3ccccc3)cc2OC)cc1	inconclusive: -31.3%
CNc1nc(NCc2ccc(N(C)C)cc2)c2sccc2n1	inactive: 28.9%
O=C(CSc1nnc(-c2ccccc2)c2ccccc12)NCCN1C(=O)CSC1=O	inconclusive: -31.1%
COc1ccc(N=C2SC(C(N)=O)CC(=O)N2Cc2ccc3c(c2)OCO3)cc1 (stereo not given)	inconclusive: -44.1%
COC(=O)C1=C(CCc2ccccc2)NC(=O)NC1c1ccc(Br)cc1 (stereo not given)	inconclusive: -35%
CCN(CC)c1nc(NN)nc(Nc2ccc(C)c(Cl)c2)n1	active: -76.1%
Cc1c(C(=O)NCc2ccc(Cl)c(Cl)c2)sc(=O)n1Cc1cccc(F)c1	inconclusive: -39.5%

SMILES	activity change
Cc1ccc(C)c(Nc2nc3ccccc3[nH]2)c1	active: -94.3%
O=C(CN(Cc1ccc(Cl)c(Cl)c1)S(=O)(=O)c1ccccc1)N/N=C\c1ccc2c(c1)OCO2	inactive: -19.6%
CCCN1CCN(CCCNC(=O)c2cc3c(s2)-c2ccccc2OC3)CC1	inconclusive: -46%
O=C(Nc1ccc(-c2nc3ncccc3o2)cc1)c1ccc(Br)o1	active: -55.4%
Cc1ccc(-c2nn(-c3ccccc3)cc2C(=O)N2CCN(c3ccccn3)CC2)cc1	inconclusive: -47.2%
Cc1ccc(-n2nnnc2CCl)cc1	active: -101%
O=C(c1cccc(Cl)c1)N1CCC(=O)N(C(COCc2cccc(Cl)c2)Cc2ccccc2)CC1 (stereo not given)	inconclusive: -41.6%
Cc1cc(NC(=O)c2c(F)cccc2F)n(-c2nc3ccccc3[nH]2)n1	inconclusive: -49.4%
CCCC(C(=O)NC1CCCC1)N(Cc1ccccc1Cl)C(=O)c1snc(C(N)=O)c1N (stereo not given)	inconclusive: -42%
COCCNC(=O)c1ccc(N2CC3CC(C2)c2cccc(=O)n2C3)c(NC(=O)c2ccccc2Cl)c1 (stereo not given)	inconclusive: -38.3%
O=[N+]([O-])c1cc(S(=O)(=O)/N=C(/c2ccccc2)N2CCOCC2)ccc1Cl	inconclusive: -44.8%
Cc1ccccc1CN1CCc2c(OCC(=O)N3CCCCC3)cccc2C1=O	inconclusive: -46.2%
Cc1cc(=O)oc2c(C)c3occc3cc12	inconclusive: -30%
Cc1ccccc1Cn1nc(C)c(NC(=O)c2cc3nc(-c4ccco4)cc(C(F)(F)F)n3n2)c1C	inconclusive: -48.1%
O=c1c2ccccc2c2ccccc2c(=O)n1Cc1cccnc1	inactive: 0%
Cc1cc(C)c2nc(N3CCCC(C(=O)N4CCN(c5ncccn5)CC4)C3)sc2c1 (stereo not given)	inconclusive: -45.6%
NC1=NC[C@H](Cc2ccc(O)cc2)N1CCC12CC3CC(CC(C3)C1)C2	inconclusive: -45.3%
COc1cc(/C=C2/C(=O)N(c3cccc(Br)c3)N=C2C)cc(OC)c1O	inconclusive: -36.3%
CC1=C(C(=O)Nc2ccc(C(=O)N3CCN(c4cccc(Cl)c4)CC3)cc2)SCCO1	inconclusive: -30.1%
CC(C)Sc1nc2ccccc2c(=O)[nH]1	inconclusive: -31.6%
Nc1ncnc2c1ccn2[C@H]1CN(Cc2ccc3c(c2)OCO3)C[C@@H](CO)O1	inconclusive: -37.5%
O=C(NCC1CCCN(C(=O)c2cscn2)C1)c1ccc(-c2ccccc2)cc1 (stereo not given)	inconclusive: -30%
CCOC(=O)C1(CCOc2ccccc2)CCN(Cc2cccc(F)c2)CC1	inconclusive: -36.6%
Clc1ccc(Sc2cc(N3CCOCC3)nc(-c3ccccc3)n2)cc1	inactive: 0%
O=C(OCC(=O)N1CCc2ccccc21)c1ccccn1	inactive: 9.26%
O=S(=O)(Nc1ccc(Nc2ccccc2)cc1)c1ccc(F)cc1	inconclusive: -36%
CC(C)(C)C1=CC(=Nc2ccccc2N)C=C(C(C)(C)C)C1=O	active: -113%
